From US20250277200A1 (VERTEX PHARMACEUTICALS, published 2025)

How the values were obtained:
C5a = target: T1, C5a (Homo sapiens (Human), UniProt P01031 678-751); experiment: cell-based or functional assay
T1 sequence: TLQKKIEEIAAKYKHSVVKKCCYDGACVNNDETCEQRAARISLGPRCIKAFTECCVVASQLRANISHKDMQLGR

C3a = C3a (Homo sapiens (Human), UniProt P01024 672-748); experiment: cell-based or functional assay
Sequence of C3a (P01024 672-748 limits assumed): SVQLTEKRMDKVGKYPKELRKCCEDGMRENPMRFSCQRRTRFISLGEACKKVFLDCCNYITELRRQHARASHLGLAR

B1: CPN1-HSA (enzyme)
chain: VTFRHHRYDDLVRTLYKVQNECPGITRVYSIGRSVEGRHLYVLEFSDHPGIHEPLEPEVKYVGNMHGNEALGRELMLQLSEFLCEEFRNRNQRIVQLIQDTRIHILPSMNPDGYEVAAAQGPNKPGYLVGRNNANGVDLNRNFPDLNTYIYYNEKYGGPNHHLPLPDNWKSQVEPETRAVIRWMHSFNFVLSANLHGGAVVANYPYDKSFEHRVRGVRRTASTPTPDDKLFQKLAKVYSYAHGWMFQGWNCGDYFPDGITNGASWYSLSKGMQDFNYLHTNCFEITLELSCDKFPPEEELQREWLGNREALIQFLEQVHQGIKGMVLDENYNNLANAVISVSGINHDVTSGDHGDYFRLLLPGIYTVSATAPGYDPETVTVTVGPAEPTLVNFHLKRSGSSGGSSGGSSG[about 600 residues cut from this listing]
For B1, which “EC50 (Arg LC-MS/MS, purified enzyme)” value (C5a) is on record?
Its value is 35.3 nM.

What about the “EC50 (Arg LC-MS/MS, purified enzyme)” value (C3a) of the same binder?
Its value is 4.42 nM.
